# Screen size: about 150,000 compounds; about 540 (0.36%) showed an effect of 50% or more. The list shows a part of the results.
# Tested on: Plasmodium falciparum
# Assay: Primary screen in NF54 nanoGlo assay, in single point, at 2uM, 72h; a lower Z score goes with more inhibition
# Type: functional, Erythrocyte
# Conditions: timepoint 72 hour
Structure (SMILES),% Inhibition [%],Z score
Cc1ccc(S(=O)(=O)NCc2ccco2)cc1C(=O)Nc1ccccn1,1,-0.16
Cn1ccnc1-c1ccccc1C(=O)NCc1nc(-c2cnccn2)n[nH]1,-3,0.46
CN1CCN(C(=O)c2ccccc2N2CCC(NC(=O)c3ccc(Cl)cc3)CC2)CC1,-8,1.48
CN1C[C@@]2(CCCN(C(=O)NCc3cncn3C3CC3)CC2)OC1=O,-10,1.92
Cc1nc(N2CCC[C@H](C(=O)NC3CC3)C2)nc2cc(S(C)(=O)=O)ccc12,-3,0.43
CO[C@@H](Cn1cnnc1Nc1cccnc1)C1CCCC1,-8,1.42
Cc1ccccc1NC(=O)N1CCC(n2cnc3c(Cl)cccc3c2=O)CC1,10,-1.16
CCCNc1cc(N2CCC(CCC(=O)N(C)Cc3cn(C)nc3C)CC2)ncn1,27,-3.02
Cc1cc(C)n(CC(=O)Nc2ccc3c(c2)OCO3)c(=O)c1-c1nc(-c2ccccc2)no1,-10,1.41
COc1cnc(C(=O)N[C@H]2CCCc3cnn(C(C)C)c32)nc1,-6,0.92
CCS(=O)(=O)c1ccccc1CC(=O)N(C)c1ccc(C)nn1,-4,0.81
CN(CC(=O)Nc1sc2c(c1C(N)=O)CCCC2)Cc1cccs1,-11,1.45
Fc1ccc([C@@]2(CNCc3ccc(C(F)(F)F)nc3)CCOC2)cc1,-21,1.82
Cc1nn(C2CCCC2)c2nc(-c3cc(CN(C)C)cs3)[nH]c12,69,-9.28
COc1ccc(C(=O)N2CC[C@H](N(C)C)[C@H](CCC(=O)O)C2)cc1Cl,-2,0.44
O=C(Cn1c(=O)n(C2CCCCC2)c(=O)c2cccnc21)Nc1cccc(C(F)(F)F)c1,-17,2.25
Cc1noc(CCCC(=O)N2CCOC[C@@H]2CC2CCC2)n1,0,0.06
O=C(C1CCCC1)N1CC[C@](O)(c2ccccc2)[C@H](N2CCCC2)C1,2,-0.23
Cc1csc(CN(C)S(=O)(=O)N2CCN(C)CC2)n1,-8,1.25
C[C@]1(c2noc(C3CCOCC3)n2)CCCN(C(=O)c2ccncc2)C1,-5,0.75
COc1cccc(NC(=O)c2ccc3c(c2)nnn3Cc2ccc(C)cc2)c1,-13,1.28

Structure (SMILES),% Inhibition [%],Z score
O=C(CCC1CCN(Cc2cccc(Oc3ccccc3)c2)CC1)NC[C@H]1CCCO1,1,-0.09
Cc1ccc(NC(=O)c2cc(N3C(=O)C4CCCCC4C3=O)ccc2N2CCCCC2)cc1 (configuration not stated),-6,0.75
Cc1nc2c(C#N)cnn2c2c1CCN2Cc1cccc(Cl)c1,-17,2.54
c1ccc(-c2cc(-c3ccccc3)c3nonc3c2-c2ccccc2)cc1,-2,0.19
Cc1csc([C@@H](NCc2ncc(C)o2)C2CC2)n1,-4,0.51
CCOC(=O)C1CCC(CN(Cc2ccc(OC)cc2)S(=O)(=O)c2cc(C(=O)Nc3ccc(OCC)cc3)ccc2F)CC1 (configuration not stated),36,-4.61
C[C@H]1CCCN(S(=O)(=O)NCCc2ccc3c(c2)OCO3)C1,-3,0.6
CC(=O)N(Cc1ccco1)Cc1cc(NC(=O)C2CCC2)ccc1N(C)C,5,-0.68
O=C(COc1ccccc1)N1CCC2(CC1)C[C@@H](N1CCOCC1)CCO2,-14,1.86
CCc1ccccc1N1C(=O)c2cc(-c3ccco3)nn2C[C@@]1(C)C(=O)NCc1ccc(C)cc1,-5,0.82
O=C(NC1CC1)c1ccc2ccccc2n1,-6,0.52
C[C@]1(CNC(=O)c2ccc3c(c2)CCCC3)CCCO1,-3,0.62
O=C(c1cccc(F)c1)N1CCCc2cnc(N3CCOCC3)nc21,-18,2.02
COc1ccc(S(=O)(=O)N2C[C@@H](C(=O)Nc3cccc(OC)c3)Oc3cc(C)ccc32)cc1,-19,2.75
COC1CN(CCOc2cccc(C#N)c2)CC1OC (configuration not stated),14,-1.76
Cc1ccc(CNC(=O)N2CCC[C@H](Cc3nncn3CC3CC3)C2)cc1,-7,0.88
O=C(NC[C@H]1CCCN(C(=O)C2CC=CC2)C1)c1ccncc1,6,-1.03
Cc1ccc2[nH]c(C3CN(C(=O)c4c(-c5ccccc5Cl)noc4C)C3)nc2c1,-13,2.38
Cc1cc(NC(=O)Cc2cccc(F)c2)sn1,-3,0.49
O=C(Nc1nccs1)Nc1nccs1,-7,1.1
COc1ccccc1C(O)Cn1cc(C(=O)NC(C)c2cccnc2)nn1 (configuration not stated),-8,1.61

Structure (SMILES),% Inhibition [%],Z score
Cn1ccnc1CNc1ncc(Cc2cccc(F)c2)s1,-9,0.88
CC(C)Oc1cccnc1C(=O)N1CC(=O)N(C)c2ccccc21,9,-1.27
O=C(COc1ccc(CO)cc1)N1CC[C@@H]2CC[C@@]21c1cccnc1,-8,0.95
O=S1(=O)CC[C@H](CNc2cnc3cc(Cl)c(Cl)cc3n2)C1,-5,0.47
COc1cccc2c1OC[C@@H](C(=O)N1CCn3c(C)nnc3C1)C2,-10,1.64
COc1cccc(C[C@H](NC(=O)c2cn[nH]c2C)C2CC2)c1,2,-0.27
O=C1[C@@H]2[C@H](Cc3ccccc3)N[C@]3(C(=O)Nc4ccccc43)[C@@H]2C(=O)N1c1ccc2c(c1)OCO2,-8,1.09
Cc1ccc(C2=NN(C(=O)CN3CCN(c4ccccc4F)CC3)[C@H](c3ccccc3C)C2)c(C)c1,-19,1.79
O=S1(=O)N(Cc2ccc(CO)cc2)c2ccccc2N1C1CC1,-1,0.14
COCc1cn([C@H]2CCN(S(=O)(=O)c3c(Cl)cccc3Cl)C2)nn1,-10,1.83
NC(=O)Cc1ccccc1OCc1coc(-c2c(F)cccc2F)n1,-7,0.64
CCCN(Cc1cc(NC(=O)C2CCC2)ccc1N(C)C)C(=O)CC,-2,0.36
C[C@@H](Cn1cncn1)c1nc(COc2ccc(C(C)(C)C)cc2)n[nH]1,-10,1.23
CN(C)c1ccc(C(=O)NCCn2nc(C3CC3)ccc2=O)nn1,14,-1.83
NC(=O)Cc1ccc(NC(=O)c2ccc3[nH]ncc3c2)cc1,0,0.02
CC1(C)OC(=O)C[C@@H]1C(=O)Nc1nc2c(s1)CCC2,1,-0.07
Cc1cccc(-c2noc(CN3CCC(=O)Nc4cc(F)ccc43)n2)c1,1,-0.25
CC1CCCC(NC(=O)C2N(CCN(C)Cc3ccccc3)C(=O)[C@H]3C(C(=O)Nc4ccc(F)c(Cl)c4)[C@H]4C=C[C@@]23O4)C1C (some centres not stated),-4,0.56
Cc1ccc2sc(CN3CC(CC4COCC(=O)N4)c4ccccc43)nc2c1 (configuration not stated),-7,0.76
Cn1nncc1S(=O)(=O)NC[C@@H](CO)CC1CCCC1,-11,1.54
Cc1ccccc1[C@@H](C)CC(=O)NCCCn1ccccc1=O,-11,1.43

Structure (SMILES),% Inhibition [%],Z score
CC(C)(C)N1C[C@@H](CNC(=O)C(=O)c2cccnc2)CC1=O,-12,2.32
Cc1nc(CCNC(=O)c2cn[nH]c2)nc2c1CCC2,-4,0.63
CC(C)OC(=O)c1cc(NC(=O)[C@@H]2CCCO2)ccc1Cl,-5,0.71
Cc1cc2[nH]c(=O)cc(C)c2c(C)c1S(=O)(=O)N1CCCCC1,-7,0.84
O=C1O[C@@H]2C[C@H]3C[C@@H]2[C@@H]1[C@H]3C(=O)Nc1ccc(C(=O)N2CCCCC2)cc1,5,-0.53
CCOc1ccccc1C(=O)Nc1cnc2cc(C)nn2c1,-11,1.44
Oc1nc(Cc2ccccc2)nc2c1nnn2Cc1ccccc1,25,-2.86
CCC(NC1CCC(=O)N(C)C1)c1ccccc1F (configuration not stated),0,0.03
Cc1nc(-n2cc(C(=O)[C@H](C)Oc3ccc(Cl)cc3)nn2)nc2c1CCCC2,7,-0.99
O=C(Nc1ccc2[nH]c(-c3cccs3)nc2c1)c1cccs1,-12,1.51
COc1ccc(-c2nc([C@H]3CC(=O)N(Cc4ccc(C)cc4)C3)[nH]c2C)cc1,-8,1.07
COCCC(C)(C)C(=O)N1CCC(c2nc(C(F)(F)F)c[nH]2)CC1,-6,1.03
CCN(CC)c1ncc(NS(=O)(=O)c2cc(C)ccc2C)cc1C(=O)O,-8,0.77
Cc1cncc(NC(=O)C(=O)N(CCc2cccc(F)c2)C2CC2)c1,-8,1.48
O=C1CCN(C(=O)C(F)F)[C@H](c2ccccc2)C1,15,-1.84
COC(OC)C12c3ccccc3C(c3ccccc31)C1C(=O)N(c3ccccn3)C(=O)C12 (configuration not stated),-34,4.04
CC(=O)N(CCCNC(=O)c1cccc(Cl)c1)C(C)C,8,-1.13
CCc1nc2cc(C(=O)O)cc(NC(=O)c3ccccc3OC)c2n1C,-11,1.24
